For 5 compounds, Potency results are on record in PubChem BioAssay (NCATS).

A short description of assay [1]: qHTS for Inhibitors of the Functional Ribonucleoprotein Complex (vRNP) of Lassa (LASV) Arenavirus: LASV Primary Screen - GLuc reporter signal (AID 1347082; calls by dose curve; tested in HEK293 reporter line; also: nearly all actives have a fitted effect of over 60% in size). (In general: Quantitative high-throughput screening tests each substance at several concentrations.)
In assay [2] the target is Nucleoprotein (Lymphocytic choriomeningitis virus (strain Armstrong)) (UniProt P09992). Put plainly: qHTS for Inhibitors of the Functional Ribonucleoprotein Complex (vRNP) of Lymphocytic Choriomeningitis Arenaviruses (LCMV): LCMV Primary Screen - GLuc reporter signal (AID 1347086). Also: nearly all actives have a fitted effect of over 70% in size.
UniProt P09992, sequence (P09992 whole entry, looked up): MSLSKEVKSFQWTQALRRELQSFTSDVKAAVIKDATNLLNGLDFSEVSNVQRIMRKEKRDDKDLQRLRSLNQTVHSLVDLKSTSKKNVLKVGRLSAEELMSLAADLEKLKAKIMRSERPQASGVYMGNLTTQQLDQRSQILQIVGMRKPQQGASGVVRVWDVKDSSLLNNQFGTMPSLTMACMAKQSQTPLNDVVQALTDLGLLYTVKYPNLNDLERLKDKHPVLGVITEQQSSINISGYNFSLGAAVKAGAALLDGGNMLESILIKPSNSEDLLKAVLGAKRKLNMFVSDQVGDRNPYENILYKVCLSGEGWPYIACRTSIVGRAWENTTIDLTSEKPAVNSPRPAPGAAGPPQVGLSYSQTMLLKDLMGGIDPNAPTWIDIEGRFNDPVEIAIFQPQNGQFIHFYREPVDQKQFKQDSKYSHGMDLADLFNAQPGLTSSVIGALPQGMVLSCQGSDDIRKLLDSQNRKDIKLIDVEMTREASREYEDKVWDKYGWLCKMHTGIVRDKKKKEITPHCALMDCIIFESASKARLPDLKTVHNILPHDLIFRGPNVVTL
The nature of assay [3]: qHTS of pediatric cancer cell lines to identify multiple opportunities for drug repurposing: Primary screen for SK-N-MC cells (AID 1347093; active = well fitted curve in the direction sought with a large enough effect; an effect the other way counts as inactive or inconclusive).
A short description of assay [4]: qHTS of pediatric cancer cell lines to identify multiple opportunities for drug repurposing: Confirmatory screen for SK-N-SH cells (AID 1347129; active = well fitted curve in the direction sought with a large enough effect; an effect the other way counts as inactive or inconclusive;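 also: cells exposed to compound for 48 h before viability read; nearly all actives have a fitted effect of over 60% in size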). An excerpt: Drug repurposing or repositioning has been offered as a strategy for drug development in oncology programs. This approach has special potential for childhood cancers and other rare or orphan diseases, where the expected return on new drug development has been a disincentive to pharmaceuticals.
In this project we exploit the poly-pharmacology of drugs to discover new indications via phenotypic screening of a panel of 19 well-characterized cell lines derived from solid tumors seen in children and adolescents. The goal is to identify approved drugs with previously unrecognized anticancer properties that has the potential to reveal new mechanisms and biological processes involved in carcinogenesis or drug resistance. We employed a titration-based paradigm (quantitative high-throughput screening or qHTS), where all compounds were tested at multiple concentrations for their effect on cell viability. […] We screened the NIH Chemical Genomics Center (NCGC) Pharmaceutical Collection (NPC) and Mechanism Interrogation Plate (MIPE) small molecule collections of approved and investigational compounds against these cell lines; and measured metabolically active cells after 48 hours of compound treatment as a proxy for cell viability. […]
[1] Shen, M et al. Quantitative high-throughput phenotypic screening of pediatric cancer cell lines identifies multiple opportunities for drug repurposing. […]

SMILES strings stand for the structures. Records with an inconclusive call do not appear. Unless noted, calls follow the shape of the full dose curve. More than one record can exist for a structure, and the calls need not agree. The source holds more than one record for some entries. They are shown here; other results are not. There may be further records. The values listed for one entry repeat one measurement across runs, samples, wells, individuals or studies. Marks in square brackets tell the records apart. The letters are not those of the source and start again with each entry.
Potency is read from the fitted curve at half-maximal effect.

As for `C[C@@H]1C[C@H]2[C@@H]3CCC4=CC(=O)C=C[C@]4(C)[C@@]3(Cl)[C@@H](O)C[C@]2(C)[C@@]1(OC(=O)c1ccco1)C(=O)CCl`, the Potency result in assay [1] is “inactive [sample A] and active: 17.2 µM [sample B]”.
In the case of `O=C(Nc1ccc([N+](=O)[O-])cc1Cl)c1cc(Cl)ccc1O`, the Potency entry in assay [2] is “active: 2 µM [sample A] and inactive [sample B] and active: 17.2 µM [sample C]”.
Same read-out and setting: to `CCCCC(CC)COC(=O)C(C#N)=C(c1ccccc1)c1ccccc1` (stereo not given) belongs “active: 13.7 µM [sample A] and inactive [sample B]”.
With `COC(=O)C1=CCCN(C)C1`, the Potency result in assay [3] is “active: 11.8 µM [sample A] and inactive [sample B]”.
In the case of `C[C@@H]1C[C@@H]([C@H](O)CC2CC(=O)NC(=O)C2)C(=O)[C@@H](C)C1`, the Potency result in assay [4] is “inactive [sample A] and active: 4.18 µM [sample B]”.
